Reference: PubChem BioAssay AID1768 (National Center for Advancing Translational Sciences (NCATS), 2009)
The campaign covered roughly 270,000 compounds. About 620 (0.23%) were called active. The inconclusive results got no clear call from the source; some entries with a clear call stand among them for comparison. Calls follow the shape of the dose curve; as a rule, active = well fitted inhibition curve with a large enough effect in the polarisation, with a control signal flat (not every such curve was filed as active); inconclusive = small, poorly fitted or top-dose-only effect, or effect the other way, or a change in a side signal; inactive = no such curve, though single readings can be large or run the other way; the % refers to the polarisation. Potencies beside an inconclusive call are fits to weak or partial responses and may not hold up. A note “side channel” means that the fit belongs to a control or component signal, not to the main read-out.

These compounds were tested against Menin (Homo sapiens) (UniProt O00255) (assay: qHTS Assay for Inhibitors Targeting the Menin-MLL Interaction in MLL Related Leukemias: Competition With Texas Red Labeled MLL-derived Mutant Peptide). Conditions: fluorescence polarization; FP activity change, negative = inhibition: at 61.6 µM (top of the series).
Sequence of UniProt O00255 (O00255 whole entry, looked up): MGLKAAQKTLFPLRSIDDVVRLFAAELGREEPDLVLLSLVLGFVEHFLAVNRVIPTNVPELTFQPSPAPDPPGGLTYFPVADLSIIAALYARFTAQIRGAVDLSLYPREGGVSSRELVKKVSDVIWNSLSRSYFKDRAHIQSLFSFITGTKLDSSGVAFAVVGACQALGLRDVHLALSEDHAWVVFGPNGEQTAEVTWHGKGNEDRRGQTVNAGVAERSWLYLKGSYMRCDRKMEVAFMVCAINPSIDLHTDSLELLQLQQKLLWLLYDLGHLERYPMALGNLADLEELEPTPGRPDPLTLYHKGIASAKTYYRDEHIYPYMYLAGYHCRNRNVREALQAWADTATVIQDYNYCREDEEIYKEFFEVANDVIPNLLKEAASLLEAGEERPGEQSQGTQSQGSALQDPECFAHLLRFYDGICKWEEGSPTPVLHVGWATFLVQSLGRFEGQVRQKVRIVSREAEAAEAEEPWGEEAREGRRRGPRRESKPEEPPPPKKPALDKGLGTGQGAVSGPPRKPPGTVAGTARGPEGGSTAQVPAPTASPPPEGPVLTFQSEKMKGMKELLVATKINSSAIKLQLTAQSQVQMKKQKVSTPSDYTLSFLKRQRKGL

For FP activity change, negative = inhibition in this document: % of control where 0% means no effect.
Potency is read from the fitted curve at half-maximal effect; tags tell the direction and shape of the fitted curve or compound fluorescence and quenching.

SMILES	Potency	FP activity change, negative = inhibition
Cc1ccc(S(=O)(=O)Nn2c(C)ccc2C)cc1	inconclusive: 31.6 µM [quencher, side channel, single point]	–
O=C(NCCCc1ccccc1)Nc1cccc(Cl)c1	inconclusive: 11.2 µM [quencher, side channel, partial curve]	–
Cc1cccc(-c2nc3c(s2)CCc2onc(-c4ccc(Br)cc4)c2-3)c1	inconclusive: 22.4 µM [quencher, side channel, single point]	–
COc1ccc(N2C(=O)CC(Sc3nc4ccccc4s3)C2=O)cc1 (centres undefined)	inconclusive: 25.1 µM [quencher, side channel, partial curve]	–
COc1ccccc1NC(=O)CCC(=O)Nc1cc(OC)c(NC(=O)c2cccs2)cc1OC	–	inactive: 2.67%
COc1ccc(-c2nonc2NC(=O)c2oc3ccc(F)cc3c2C)cc1OC	inconclusive: 39.8 µM [fluorescent, single point]	–
Cc1ccccc1N/C(SCc1cccc(Br)c1)=C(/C#N)C(N)=O	inconclusive: 39.8 µM [inhibitor, single point]	–
Cc1ccc(S(=O)(=O)CNC(=S)c2cccc(Cl)c2)cc1	–	inactive: 0.638%
O=C(NNC(=S)NC(=O)c1ccccc1Cl)c1cccc([N+](=O)[O-])c1	inconclusive: 17.8 µM [quencher, side channel, partial curve]	–
COCC1CCCN(Cc2cn(-c3ccccc3F)nc2-c2cc(C)sc2C)C1 (centres undefined)	inconclusive: 1.78 µM [fluorescent, side channel, full curve, poor fit]	–
O=C(CSc1nc2ccc(Cl)cc2[nH]1)c1ccc2c(c1)OCO2	inconclusive: 15.8 µM [quencher, side channel, single point]	–
COc1ccc2[nH]cc(CCNc3nc(-c4cccnc4)nc4ccccc34)c2c1	inconclusive: 15.8 µM [quencher, side channel, partial curve]	–
Nn1cnnc1N/N=C/c1cc(Br)cc(Br)c1O	inconclusive: 28.2 µM [quencher, side channel, single point]	–
CC1(C)CC(=O)C2=C(C1)OC1=C(C(=O)CC(C)(C)C1)C2c1cc([N+](=O)[O-])cc([N+](=O)[O-])c1O	inconclusive: 39.8 µM [quencher, partial curve]	–
CCc1ccc2c(c1)C(=O)C(=O)N2CC(=O)Nc1ccc(NC(=O)c2ccccn2)cc1	inconclusive: 39.8 µM [quencher, side channel, single point]	–
O=C1CCCC2=C1C(c1ccccc1)C1C(=O)c3ccccc3C1=N2 (centres undefined)	inconclusive: 35.5 µM [quencher, side channel, single point]	–
COc1ccc(C)cc1NS(=O)(=O)c1cn(C)nc1C	inconclusive: 39.8 µM [fluorescent, partial curve]	–
COc1ccc(N(CC(=O)NCc2ccco2)S(=O)(=O)c2ccc(C)cc2)cc1OC	inconclusive: 35.5 µM [fluorescent, side channel, single point]	–
COc1ccc(N2CCN(CCC3Oc4cc([N+](=O)[O-])ccc4NC3=O)CC2)cc1 (centres undefined)	inconclusive: 25.1 µM [quencher, side channel, partial curve]	–
CCn1c(C)c(C(C)=O)c(N2CCN(c3ccc(F)cc3)CC2)nc1=S	–	inactive: -0.412%
CCn1cc(CN2CCCC(C(=O)Nc3cccc(-c4cc5ccccc5[nH]4)c3)C2)cn1 (centres undefined)	inconclusive: 31.6 µM [quencher, side channel, partial curve]	–
O=S(=O)(N1CCCCC1)n1nnc2ccccc21	inconclusive: 6.31 µM [fluorescent, side channel, single point]	–
Nc1ccc(O)c2c(=O)cc(-c3ccccc3Cl)oc12	inconclusive: 56.2 µM [quencher, side channel, single point]	–
O=C(CCN1C(=O)/C(=C/c2ccc(Cl)cc2)SC1=S)Nc1ccc(C(=O)O)cc1	inconclusive: 10 µM [quencher, side channel, partial curve]	–
Cc1ccc(Cn2nnc3c(=O)[nH]c(C4CCCN(S(=O)(=O)c5ccccc5F)C4)nc32)cc1 (centres undefined)	inconclusive: 7.08 µM [inhibitor, full curve]	–
Cc1ccc(N(C(=O)C2CCC(=O)N2)C2(C(=O)NC3CCCCC3)CCCCC2)cc1 (centres undefined)	inconclusive: 28.2 µM [fluorescent, side channel, single point]	–
CCCOc1ccc(S(=O)(=O)N2CCN(C)CC2)c2ccccc12	inconclusive: 17.8 µM [inhibitor, single point]	–

SMILES	Potency	FP activity change, negative = inhibition
CCOc1cc([N+](=O)[O-])cc(/C=C2/NC(=O)N(Cc3ccccc3F)C2=O)c1O	inconclusive: 14.1 µM [quencher, side channel, partial curve]	–
CN1CCS/C1=C/C=C1\SC(=S)N(CC(=O)O)C1=O	inconclusive: 39.8 µM [fluorescent, single point]	–
Cc1ccc(C)c(OCCCCn2cnc3ccccc3c2=O)c1	inconclusive: 39.8 µM [quencher, side channel, single point]	–
COc1ccc(S(=O)(=O)N2CCCCC2)cc1NS(=O)(=O)c1cc(Cl)ccc1Cl	inconclusive: 28.2 µM [quencher, side channel, single point]	–
O=C1/C(=C\c2ccc(O)c(O)c2)C(c2ccccc2)=NN1c1ccccc1	inconclusive: 14.1 µM [quencher, side channel, partial curve]	–
COc1cccc(-c2ccc3ncnc(NCc4ccccc4)c3c2)c1	inconclusive: 35.5 µM [quencher, side channel, partial curve]	–
Cc1cccc(Nc2nnc(SCC(=O)c3ccc(Br)s3)s2)c1C	inconclusive: 12.6 µM [quencher, side channel, partial curve]	–
Cc1noc(C)c1CSc1nc2sc3c(c2c(=O)n1C)CCCC3	inconclusive: 22.4 µM [fluorescent, side channel, partial curve]	–
CCC1CCCCN1C(=O)CCCc1ccccc1 (centres undefined)	inconclusive: 22.4 µM [fluorescent, side channel, partial curve]	–
CCOc1ccc(CN2CCN(C(=O)c3cccc4ccccc34)CC2)cc1	inconclusive: 11.2 µM [fluorescent, side channel, partial curve]	–
CCNc1ncc2nc(-c3cccs3)c(=O)n(CCc3ccccc3)c2n1	inconclusive: 22.4 µM [fluorescent, side channel, partial curve]	–
COC(=O)C1=CN(Cc2ccc(OC)c(OC)c2)C=C(C(=O)OC)C1c1cccc(OC)c1OC	inconclusive: 7.08 µM [fluorescent, side channel, partial curve]	–
COc1cc(/C=N/NC(=O)C2C3CCCCC32C)cc(Br)c1O (centres undefined)	inconclusive: 11.2 µM [quencher, side channel, partial curve]	–
COC(=O)CCC(=O)OC1(C)C(=O)C2=CN(CCCCO)C(c3ccc(OC)cc3)=CC2=C(Br)C1=O (centres undefined)	inconclusive: 39.8 µM [fluorescent, side channel, single point]	–
O=C(Cc1ccc(Cl)cc1)NNC(=O)Nc1cccc2ccccc12	inconclusive: 35.5 µM [inhibitor, single point]	–
COC(=O)[C@@]1(Cc2ccccc2)[C@H]2c3cc(C(=O)N4CCCC4)n(Cc4ccc(OC)c(OC)c4)c3C[C@H]2CN1C(=O)c1ccccc1	inconclusive: 1.78 µM [fluorescent, side channel, full curve, poor fit]	–
COc1ccc(-c2c(-c3ccc(OC)c(C)c3O)n[nH]c2C)cc1	inconclusive: 14.1 µM [quencher, side channel, partial curve]	–
COC(=O)c1ccccc1NC(=O)N1CCN(Cc2ccco2)CC1	inconclusive: 17.8 µM [fluorescent, side channel, partial curve]	–
CCOCCCn1c(SCc2nc3sc(C(=O)O)c(C)c3c(=O)[nH]2)nnc1-c1ccc(Cl)cc1	inconclusive: 5.01 µM [inhibitor, partial curve]	–
COc1cc(/C=N/N(C)C2=NS(=O)(=O)c3ccccc32)cc(OC)c1OC	inconclusive: 39.8 µM [fluorescent, side channel, single point]	–
Cc1cc(N2CCOCC2)n2nc(C)c(-c3ccccc3Cl)c2n1	inconclusive: 0.708 µM [inhibitor, full curve, poor fit]	–
CN(C)CC/C=C1/c2ccccc2Sc2c(O)cc(Cl)cc21	inconclusive: 12.6 µM [quencher, side channel, partial curve]	–
O=C(O)Cn1cc(/C=C2/NC(=O)N(c3ccc(Cl)cc3)C2=O)c2ccccc21	inconclusive: 14.1 µM [quencher, side channel, partial curve]	–
Cc1cc(C(=O)N2CCCC(C(=O)c3cccc(C(F)(F)F)c3)C2)n[nH]1 (centres undefined)	inconclusive: 8.91 µM [inhibitor, partial curve]	–
Cc1c(C)n(C(=O)CN2CCN(c3ccccn3)CC2)c2ccccc12	inconclusive: 17.8 µM [fluorescent, side channel, single point]	–
CNc1ccccc1C(C)(C)c1cc(-c2cccc(Br)c2)no1	inconclusive: 28.2 µM [fluorescent, side channel, partial curve]	–
CS(=O)(=O)C1=NSC2=NC(=O)/C(=C\c3ccc(-c4ccccc4)o3)C(=N)N21	inconclusive: 28.2 µM [quencher, side channel, partial curve]	–
